Reference: PubChem BioAssay AID624173 (National Center for Advancing Translational Sciences (NCATS), 2012)
The whole screen tested about 410,000 compounds, of which about 490 (0.12%) were called active. This list was built around the results that the source calls inconclusive (neither active nor inactive); the mix of calls is not that of the screen. Calls follow the shape of the dose curve; as a rule, active = well fitted inhibition curve with a large enough effect; inconclusive = small, poorly fitted or top-dose-only effect; inactive = flat fitted curve, though single readings scatter. Potencies of inconclusive entries are doubtful fits and often do not repeat.

Each compound was assayed against pyruvate kinase (Trypanosoma brucei) (UniProt Q57TT1) (assay: qHTS of Trypanosoma Brucei Inhibitors). Conditions: TbPYK enzyme, Kinase-Glo Plus ATP luminescence, 45 min; series mostly up to 76.8 µM; activity, negative = inhibition: at the top concentration.
In short: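 Screened from lowest to highest concentration, compounds were pinned into TbPYK/substrate mixtures, and ADP (130 uM final) was added. Plates sat at room temperature for 45 min prior to Kinase-Glo Plus detection by luminescence.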
% is scaled to controls: 0 for no effect and ±100 for the full control effect; potency is read from the fitted curve at half-maximal effect; tags tell the direction and shape of the fitted curve.
Also: nearly all actives have a fitted effect of over 50% in size.

Structure (SMILES) | activity, negative = inhibition | Potency
O=C(CN1CCCC1)Nc1cc(C(F)(F)F)ccc1Cl | inactive: 6.85% | 
COC(=O)C(Cc1cccc(C)n1)(c1ccccc1)c1ccccc1 | inactive: -2.05% | 
O=C1c2ccccc2C(=O)N1CCSc1n[nH]c(=S)s1 |  | active: 28.2 µM
O=C(c1ccc(F)cc1)N1CCCC(c2nc(-c3ccncc3)no2)C1 (stereo not given) | inactive: -0.396% | 
CCC(=O)Nc1ccc2oc(-c3cccc(C)c3)nc2c1 |  | inconclusive: 35.5 µM [inhibitor, partial curve]
Cc1ccc(NC(=O)c2ncn(CC(=O)NCC(C)c3ccccc3)n2)cc1C (stereo not given) | inactive: -3.16% | 
COC(=O)c1ccc(NC(=O)CSc2ccccc2)cc1 |  | inconclusive: 35.5 µM [inhibitor, partial curve, poor fit]
Cn1cc(Cl)c(-c2n[nH]c(=S)n2C2CCCCC2)n1 |  | active: 7.08 µM
O=C(NCc1ccc(F)cc1)c1cc(-c2cccs2)on1 | inactive: -4.68% | 
COc1ccc(/C=C/c2ccccc2)cc1[C@H]1[C@@H]2C=CCC[C@@]2(C)C(=O)N1Cc1ccccc1 | inactive: 1.56% | 
Cc1cc(=O)n(Nc2ccccc2)c(O)c1C#N |  | inconclusive: 28.2 µM [inhibitor, partial curve, poor fit]
COc1ccc(NS(=O)(=O)c2cc3[nH]c(=O)c(=O)[nH]c3cc2C)cc1Cl | inactive: 3% | 
COc1ccccc1S(=O)(=O)N(C)C[C@@H]1Oc2ncc(-c3ccc(C)cc3)cc2C(=O)N([C@H](C)CO)C[C@@H]1C |  | inconclusive: 35.5 µM [inhibitor, partial curve, poor fit]
COCCC(=O)N1CCc2ccc(NC(=O)c3ccc(C(F)(F)F)cc3)cc2C1 | inactive: 2.3% | 
O=C(OCC(=O)C12CC3CC(CC(C3)C1)C2)c1cnccn1 | inactive: -1.7% | 
S=c1[nH]nc(C23CC4CC(CC(C4)C2)C3)n1Cc1ccco1 |  | inconclusive: 10 µM [inhibitor, partial curve]
COC(=O)C1=C(c2ccc(C(C)=O)cc2)C[C@@H]2CC[C@H]1N2C(=O)NC1Cc2ccccc2C1 |  | inconclusive: 39.8 µM [inhibitor, partial curve]
CNC(=O)c1cc(S(=O)(=O)N2CC(C)OC(C)C2)ccc1N1CCOCC1 (stereo not given) |  | inconclusive: 50.1 µM [inhibitor, single point]
c1ccc2nc(-c3nc4ccccc4[nH]3)ccc2c1 |  | inconclusive: 22.4 µM [inhibitor, partial curve, poor fit]
CCn1c(SCc2ccccc2)nnc1-c1ccc(S(=O)(=O)N2CCCCC2)cc1 |  | inconclusive: 25.1 µM [inhibitor, partial curve, poor fit]
Cc1ccccc1-c1nc(C#N)c(N2CCC(C)CC2)o1 | inactive: 1.68% | 
C=CCn1c(-c2ccc3ncccc3c2)n[nH]c1=S |  | inconclusive: 10 µM [inhibitor, partial curve]
Cc1ccc(O)c(C(=O)c2cnn(-c3ccccc3)c2)c1 |  | inconclusive: 31.6 µM [inhibitor, single point]
COc1ccc(-n2c(CNC(=O)COc3ccc(Cl)cc3)n[nH]c2=S)cc1 |  | inconclusive: 10 µM [inhibitor, partial curve, poor fit]

Structure (SMILES) | activity, negative = inhibition | Potency
COc1cccc(CNc2nc3cc(C(C)=C(C)C)sc3c(=O)n2C)c1 |  | inconclusive: 28.2 µM [inhibitor, partial curve]
C=CCn1c(CNC(=O)c2ccco2)nnc1SCC(=O)c1ccccc1 |  | inconclusive: 25.1 µM [inhibitor, partial curve, poor fit]
COc1ccc2[nH]c3c(NCCCOC(C)C)ncnc3c2c1 |  | inconclusive: 22.4 µM [inhibitor, partial curve, poor fit]
CC(C)Oc1ccc(OCCn2c(=S)[nH]c3c(N)ncnc32)cc1 |  | inconclusive: 3.55 µM [inhibitor, partial curve, poor fit]
C=CCn1c(-c2cc(OC)c(OC)c(OC)c2)n[nH]c1=S |  | inconclusive: 11.2 µM [inhibitor, partial curve]
COc1ccc(N2C(=O)CC(N3CCN(S(=O)(=O)c4ccc(Cl)cc4)CC3)C2=O)cc1 (stereo not given) | inactive: -3.91% | 
CCSc1ccccc1C(=O)N1CCN(c2ccccc2F)CC1 | inactive: 5.72% | 
CC1Cc2ccccc2N1C(=O)CNc1cccc(S(=O)(=O)N2CCCC2)c1 (stereo not given) |  | inconclusive: 50.1 µM [inhibitor, single point]
O=C(O)/C=C1\NC(=O)c2ccccc21 |  | inconclusive: 5.01 µM [inhibitor, partial curve, poor fit]
CCCCC(=O)N(Cc1ccc2c(c1)OCO2)Cc1nc2ccccc2c(=O)[nH]1 |  | inconclusive: 28.2 µM [inhibitor, partial curve, poor fit]
O=C(O)c1ccc(COc2cccc(CO)c2)cc1 |  | inconclusive: 25.1 µM [inhibitor, single point]
O=C1OC(Nc2ccc3c(c2)OCO3)c2ccccc21 (stereo not given) |  | inconclusive: 17.8 µM [inhibitor, partial curve, poor fit]
CC(C)(C)c1ccc(C(=O)NC(=S)N2CCOCC2)cc1 |  | inconclusive: 35.5 µM [inhibitor, partial curve]
O=C1NC(=O)C(=Cc2ccco2)C(=O)N1 |  | inconclusive: 31.6 µM [inhibitor, single point]
O=C1NC(=O)C(=Cc2c(Cl)cccc2Cl)C(=O)N1 |  | inconclusive: 35.5 µM [inhibitor, partial curve]
COc1ccc(/C=N/n2c(-c3cccs3)n[nH]c2=S)cc1 |  | active: 1.26 µM
CN(C)c1ccc(/C=C/c2ccc3c4ccccc4ccc3[n+]2-c2ccccc2)cc1 |  | inconclusive: 25.1 µM [inhibitor, partial curve, poor fit]
CCN(CC)C(=S)SSC(=S)N(CC)CC |  | active: 6.31 µM
COc1ccccc1/C=C/C=N/n1c(-c2ccncc2)n[nH]c1=S |  | inconclusive: 2.82 µM [inhibitor, full curve]
c1cc2c(cc1-n1cnnn1)OCO2 | inactive: -1.1% | 
COC(=O)CN1C(=O)CSc2ccc(S(=O)(=O)Nc3ccc(Cl)cc3C)cc21 | inactive: 2.59% | 
Cc1cccc(-c2n[nH]c(=S)n2/N=C/C=C/c2ccco2)c1 |  | inconclusive: 2.24 µM [inhibitor, full curve, poor fit]
O=C(NCCF)C1Nc2ccc(OC(F)(F)F)cc2C2C=CCC12 (stereo not given) |  | inconclusive: 35.5 µM [inhibitor, single point]
CCOC(=O)C=C(C(=O)OCC)C(=O)OCC |  | inconclusive: 12.6 µM [inhibitor, partial curve]

Structure (SMILES) | activity, negative = inhibition | Potency
Cc1cc2nc3ccc(=[N+](C)C)cc-3sc2cc1N |  | inconclusive: 50.1 µM [inhibitor, single point]
Cn1sc2ccccc2c1=O |  | inconclusive: 28.2 µM [inhibitor, partial curve, poor fit]
CCn1c(CCNC(=O)c2ccc(Cl)cc2)n[nH]c1=S |  | inconclusive: 28.2 µM [inhibitor, partial curve]
Cc1cc(C)c2c(=O)n(CC(=O)NC3CCCC3)sc2n1 |  | active: 10 µM
COc1ccc(NC(=O)C(C/C=C(/C)Cl)C(C)=O)cc1 (stereo not given) |  | inconclusive: 31.6 µM [inhibitor, partial curve, poor fit]
COC(=O)c1sccc1NC(=O)Nc1ccc(OC)cc1 |  | inconclusive: 35.5 µM [inhibitor, partial curve, poor fit]
COc1ccccc1NC(=O)N(Cc1ccco1)Cc1cc2c(C)ccc(C)c2[nH]c1=O | inactive: 1.38% | 
Cc1ccc(C)c(N2CCN(C(=O)CCNC(=O)Cn3ccc4ccccc4c3=O)CC2)c1 | inactive: 0.887% | 
Cc1ncoc1C(=O)Nc1ncc([N+](=O)[O-])s1 |  | inconclusive: 25.1 µM [inhibitor, partial curve]
C[n+]1ccc(C(=O)Nc2ccccc2Cl)cc1 | inactive: -10.3% | 
CC(C)(C)C1CCc2nc(NC(=O)Cc3ccc(Cl)cc3)sc2C1 (stereo not given) | inactive: 1.45% | 
CCn1c2c(c(=O)n3ncc(C(=O)Nc4ccc(F)c(Cl)c4)c13)CN(Cc1ccc(OC)cc1)CC2 |  | inconclusive: 39.8 µM [inhibitor, single point]
Cc1ccc(/C=N/n2c(C3CCCCC3)n[nH]c2=S)o1 |  | inconclusive: 7.94 µM [inhibitor, partial curve]
S=c1[nH]nc(-c2ccco2)n1-c1ccc(Cl)cc1 |  | inconclusive: 5.01 µM [inhibitor, full curve, poor fit]
Cn1c(=O)c2ncn(CC(=O)Nc3cccc(-c4nc5ccccc5s4)c3)c2n(C)c1=O |  | inconclusive: 0.891 µM [inhibitor, full curve, poor fit]
CN(C)c1ccc2nc3ccc(=O)cc-3sc2c1 |  | inconclusive: 28.2 µM [inhibitor, partial curve]
NS(=O)(=O)c1ccc(NC(=S)NCc2ccccc2)cc1 |  | inconclusive: 12.6 µM [inhibitor, partial curve]
CC(=O)Nc1ccc(C(=O)CSc2nnc(-c3ccc(O)cc3)n2CC2CCCO2)cc1 (stereo not given) |  | inconclusive: 28.2 µM [inhibitor, partial curve]
Cc1c(C)c(C)c(S(=O)(=O)N2CCC3(CC2)OCCO3)c(C)c1C |  | inconclusive: 20 µM [inhibitor, partial curve]
COc1ccccc1-n1c(CNC(=O)c2ccco2)n[nH]c1=S |  | inconclusive: 12.6 µM [inhibitor, partial curve, poor fit]
CCN=C1NN=C(c2ccc(C)cc2)CS1 |  | inconclusive: 39.8 µM [inhibitor, single point]
CCC(C)n1c(=N)c(C(=O)NC2CCCCC2)cc2c(=O)n3cc(C)ccc3nc21 (stereo not given) | inactive: 2.88% | 
